Measured values from PubChem BioAssay (NCATS).
Several values for one entry are separate records, joined by “and”; a condition that tells them apart may be missing. Equal entries are not always repeated. The inconclusive results got no clear call from the source; some entries with a clear call stand among them for comparison. For part of these data: Potencies beside an inconclusive call are fits to weak or partial responses and may not hold up. Activity calls are given as the source filed them. Unless noted, the call rests on the fitted dose curve; in most records, active means well fitted curve in the direction sought with a large enough effect; inconclusive means small, poorly fitted or top-dose-only effect, or another doubt; inactive means no such curve, though single readings can be large; an effect the other way counts as inactive or inconclusive.

Experiments:
[1] = P-glycoprotein substrates identified in KB-8-5-11 adenocarcinoma cell line, qHTS therapeutic library screen (AID 1346987); details: activity change, negative = cytotoxicity: at 44.5 µM (top of the series); further: nearly all actives have a fitted effect of over 65% in size; further: potency means the concentration at half of the fitted maximal effect
Method in brief: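 Human cervical adenocarcinoma KB-8-5-11 cells, selected in colchicine to over-express P-gp and assayed without it, were exposed for 72 h to titrated compounds. An ATP-based luminescent viability signal gave AC50.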

[2] = target: Cytochrome P450 2C9 (Homo sapiens) (UniProt P11712); experiment: Cytochrome P450 family 2 subfamily C member 9 (CYP2C9) small molecule antagonists: luciferase biochemical (cell-free) qHTS assay (AID 1645842; active means well fitted curve in the direction sought with a large enough effect in the repeat runs; inconclusive means weak or mixed curves; inactive means no such curve, though single readings can be large; an effect the other way counts as inactive or inconclusive; further: potency means the concentration at half of the fitted maximal effect; nearly all actives have a fitted effect of over 55% in size)
Method in brief: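 P450-Glo CYP2C9 system: proluciferin substrate with enzyme in mix containing 0.4% BSA, 10 min at room temperature, then NADPH regeneration solution added and incubated 1 h at 37C. Detection reagent stopped reaction; luminescence read after 20 min as RLU.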

[3] = Primary qHTS for inhibitors of nuclear receptor binding SET domain protein 2 (NSD2) in an isogenic RCH-ACV NSD2 p.E1099K mutant (9B) (AID 1645876); details: activity change, negative = viability loss: at 44.9 µM (top of the series) unless noted; further: nearly all actives have a fitted effect of over 70% in size; further: potency means the concentration at half of the fitted maximal effect
[4] = Primary qHTS for inhibitors of nuclear receptor binding SET domain protein 2 (NSD2) in an RCH-ACV wild type WT cells (2C) (AID 1645877); details: activity change, negative = cell killing: at 44.9 µM (top of the series) unless noted; further: nearly all actives have a fitted effect of over 70% in size; further: potency means the concentration at half of the fitted maximal effect
[5] = system: SKOV3; experiment: Primary qHTS to identify gynecologic anti-cancer compounds using libraries of approved drugs and bioactive compounds (AID 1345084); details: Gynecologic cancer cell panel viability, ATPlite luminescence, 48 h; series mostly up to 57.5 µM; further: nearly all actives have a fitted effect of over 55% in size; further: potency means the concentration at half of the fitted maximal effect
Method in brief: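 Cells, 1,000 per well, were allowed to settle for 16 h at 37 C before compound addition. Five concentrations were tested for 48 h, and viability was read by ATPlite luminescence after 15 min at room temperature.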

[6] = qHTS of pediatric cancer cell lines to identify multiple opportunities for drug repurposing: Primary screen for Saos-2 cells (AID 1347097); details: Saos-2 viability, CellTiter-Glo ATP luminescence, 48 h; activity change, negative = cytotoxic: at 46 µM (top of the series); further: nearly all actives have a fitted effect of over 40% in size
Method in brief: (§1)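 Primary screen of approved and investigational compounds on cells in growth media at 37 degrees C, 5% CO2. MIPE set at 11-point and NPC set at 8-point dilutions; viability scored by ATP-based luminescence at 48 hours.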

[7] = qHTS of pediatric cancer cell lines to identify multiple opportunities for drug repurposing: Primary screen for LAN-5 cells (AID 1347100)
Method in brief: (§2)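 Cells (500-1,000/well) rested 5 h, then received compounds for 48 h; metabolically active cells were measured by CellTiter-Glo luminescence. Final concentrations spanned up to 46 µM (MIPE, 11-point) or 0.59 nM-46 µM (NPC, 8-point) in primary screens, 11-point in follow-ups.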

[8] = qHTS of pediatric cancer cell lines to identify multiple opportunities for drug repurposing: Primary screen for MG 63 (6-TG R) cells (AID 1347105); details: MG 63 (6-TG R) viability, CellTiter-Glo, 48 h; activity change, negative = cytotoxic: at 46 µM (top of the series); further: nearly all actives have a fitted effect of over 50% in size
Method in brief: as §1

[9] = Primary qHTS for small molecule stabilizers of the endoplasmic reticulum resident proteome: Secreted ER Calcium Modulated Protein (SERCaMP) assay (AID 1508630); details: SH-SY5Y GLuc-SERCaMP (Gaussia luciferase released on ER calcium loss) secretion, thapsigargin, luminescence; activity change, negative = inhibition: at 38.4 µM (top of the series) unless noted; further: potency means the concentration at half of the fitted maximal effect
Method in brief: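 The SH-SY5Y reporter protocol was run at 3 concentrations up to 38.3 uM (primary) or 11 concentrations (follow-up): 16 h compound, 100 nM thapsigargin for 4 h, then extracellular luciferase luminescence.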

[10] = system: Zika virus NS2B-NS3 protease (unlinked complex); experiment: Primary screen GU Rhodamine qHTS for Zika virus inhibitors: Unlinked NS2B-NS3 protease assay (AID 1347159); details: Recombinant ZIKV NS2B-NS3 protease, Rhodamine110 substrate fluorescence; activity change, negative = inhibition: at 107 µM (top of the series); further: potency means the concentration at half of the fitted maximal effect; nearly all actives have a fitted effect of over 60% in size
Method in brief: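 Buffer 10 mM Tris-HCl pH 8.0, 0.01% Tween 20. Unlinked protease 25 nM; compound preincubation 15 min, RT, protected from light. Substrate Rhod110, 1.5 microM; ~15% conversion in 15 min.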

[11] = system: Zika virus NS2B-NS3 protease (linked construct); experiment: Primary screen NINDS Rhodamine qHTS for Zika virus inhibitors (AID 1347160); further: nearly all actives have a fitted effect of over 55% in size
Method in brief: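 Aprotinin served as in-plate control. Conditions: 25 nM linked NS2B-NS3, pH 8.0 Tris buffer, titrated compounds, 15 min preincubation and 15 min reaction with 1.5 microM Rhod110 substrate at room temperature.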

[12] = Primary fluorescence-based thiol-reactive (MSTI) qHTS assay for identification of artifact compounds. (AID 1845221);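 further: thiol-reactive compounds lower the probe fluorescence signal; nearly all actives have a fitted effect of over 65% in size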
Method in brief: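 qHTS titration of compound; 4 uM MSTI, PBS pH 7.4, 2% DMSO; 1 h RT, dark; fluorescence 525/598 nm; normalized to Acetyl-MSTI and MSTI; 4-parameter Hill fit.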

[13] = qHTS of pediatric cancer cell lines to identify multiple opportunities for drug repurposing: Primary screen for BT-12 cells (AID 1347101); further: nearly all actives have a fitted effect of over 25% in size
Method in brief: as §2

[14] = system: Zika virus NS2B-NS3 protease; experiment: Primary screen GU AMC qHTS for Zika virus inhibitors (AID 1347154); further: potency means the concentration at half of the fitted maximal effect; nearly all actives have a fitted effect of over 70% in size
Method in brief: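 Fluorogenic AMC-substrate cleavage by noncovalent NS2B-NS3 protease complex (25 nM, pH 8.0 Tris buffer with Tween 20) followed for 15 minutes at room temperature (~20% conversion). Percent inhibition from ex340/em450 signal change, fitted by 4-parameter Hill equation.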

[15] = target: Glutathione peroxidase 1 (Homo sapiens) (UniProt P07203); experiment: Primary qHTS Assay for Inhibitors of Recombinant Selenoprotein Glutathione Peroxidase 1 (GPX1) (AID 1845191); further: potency means the concentration at half of the fitted maximal effect; nearly all actives have a fitted effect of over 65% in size
Method in brief: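 NADPH consumption tracked by fluorescence at 340/450 nm between t=0 and t=15 min, room temperature. Final mix: 10 nM GPX1, 100 nM glutathione reductase, 1 mM GSH, 0.5 mM NADPH, 0.5 mM cumene hydroperoxide, 0.01% BSA; 30 min compound–enzyme preincubation.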

[16] = target: Phospholipid hydroperoxide glutathione peroxidase GPX4 (Homo sapiens) (UniProt P36969); experiment: Primary qHTS Assay for Inhibitors of Recombinant Selenoprotein Glutathione Peroxidase 4 (GPX4) (AID 1845192); details: activity change, negative = inhibition: at 50 µM (top of the series) unless noted; further: potency means the concentration at half of the fitted maximal effect; nearly all actives have a fitted effect of over 65% in size
Method in brief: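 NADPH consumption followed by fluorescence at 340/450 nm, t=0 and after 15 min at room temperature. Reaction started with cumene hydroperoxide (0.5 mM final) after 30 min compound–GPX4 preincubation; final 200 nM GPX4, 100 nM GR, 1 mM GSH, 0.5 mM NADPH.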
Tags describe the fitted curve by direction and shape.

UniProt P11712, sequence (P11712 whole entry, looked up): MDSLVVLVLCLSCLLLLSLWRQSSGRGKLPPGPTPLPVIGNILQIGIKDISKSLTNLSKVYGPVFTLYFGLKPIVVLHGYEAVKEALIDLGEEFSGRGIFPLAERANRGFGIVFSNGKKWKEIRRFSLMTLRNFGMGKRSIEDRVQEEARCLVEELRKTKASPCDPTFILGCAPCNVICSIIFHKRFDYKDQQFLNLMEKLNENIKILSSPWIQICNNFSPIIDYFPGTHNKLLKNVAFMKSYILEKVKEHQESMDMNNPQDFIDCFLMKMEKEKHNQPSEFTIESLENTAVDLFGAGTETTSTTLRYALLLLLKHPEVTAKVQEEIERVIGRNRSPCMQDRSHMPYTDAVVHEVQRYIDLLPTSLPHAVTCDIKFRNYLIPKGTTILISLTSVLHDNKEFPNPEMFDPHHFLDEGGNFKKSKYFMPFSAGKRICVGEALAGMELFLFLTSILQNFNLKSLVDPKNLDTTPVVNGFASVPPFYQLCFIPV
UniProt P07203, sequence (P07203 whole entry, looked up): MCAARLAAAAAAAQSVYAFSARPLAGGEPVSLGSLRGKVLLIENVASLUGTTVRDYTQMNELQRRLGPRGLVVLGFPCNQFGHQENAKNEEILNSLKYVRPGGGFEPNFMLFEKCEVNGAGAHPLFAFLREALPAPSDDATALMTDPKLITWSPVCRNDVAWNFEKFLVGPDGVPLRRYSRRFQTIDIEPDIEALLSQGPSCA
UniProt P36969, sequence (P36969 whole entry, looked up): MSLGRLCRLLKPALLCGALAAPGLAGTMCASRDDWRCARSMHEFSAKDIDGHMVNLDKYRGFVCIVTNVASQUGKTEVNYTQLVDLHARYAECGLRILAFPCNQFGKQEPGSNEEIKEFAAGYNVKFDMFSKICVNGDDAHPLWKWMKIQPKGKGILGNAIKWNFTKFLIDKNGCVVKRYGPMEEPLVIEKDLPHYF

CC(C)(C)CCN1C[C@@H]2C(CNC(=O)c3cc(Cl)cc(Cl)c3)[C@@H]2C1 (stereo partly drawn)
Potency [1]: inactive | Potency [2]: inconclusive: 13.5 µM [inhibitor, partial curve, poor fit] | Potency [3]: inconclusive: 23 µM [inhibitor, single point] | Potency [4]: inconclusive: 29 µM [inhibitor, single point] | Potency [5]: inconclusive: 3.55 µM [cytotoxic, single point]

CC1=CC[C@@]2(C)CC[C@@](O)(C(C)C)[C@@H]2[C@@H](O)C1
Potency [1]: inactive | Potency [3]: inactive | Potency [5]: inconclusive: 39.8 µM [cytotoxic, partial curve, poor fit]

CCCCCOC(=O)Nc1nc(=O)n([C@@H]2O[C@H](C)[C@@H](O)[C@H]2O)cc1F
Potency [6]: inactive | Potency [7]: inactive | Potency [8]: inactive | Potency [9]: inconclusive: 8.91 µM [inhibitor, partial curve, poor fit] | Potency [4]: inactive | Potency [5]: inconclusive: 31.6 µM [cytotoxic, single point]

C=C1C(O)CCC2(C)CC3(OC)OC(=O)C(C)=C3CC12 (stereo not drawn)
Potency [10]: inconclusive: 50.1 µM [inhibitor, partial curve, poor fit] | Potency [11]: inactive | Potency [4]: inconclusive: 18.3 µM [inhibitor, single point] | Potency [12]: inactive | Potency [5]: inconclusive: 6.31 µM [rising, single point]

COc1ccccc1N1CCN(CCCCNC(=O)c2ccc(-c3cscn3)cc2)CC1
Potency [1]: inconclusive: 4.61 µM [inhibitor, partial curve, poor fit] | Potency [2]: inconclusive: 21.3 µM [inhibitor, single point] | Potency [3]: inconclusive: 20.5 µM [inhibitor, partial curve] | Potency [4]: inconclusive: 20.5 µM [inhibitor, partial curve, poor fit] | Potency [5]: inconclusive: 0.891 µM [cytotoxic, single point]

COc1c(N2C[C@@H]3CCCN[C@@H]3C2)c(F)cc2c(=O)c(C(=O)O)cn(C3CC3)c12
Potency [6]: inactive | Potency [13]: inactive | Potency [14]: active: 14.4 µM | Potency [9]: inconclusive: 25.1 µM [inhibitor, partial curve, poor fit] | Potency [3]: inconclusive: 23.7 µM [inhibitor, single point] | Potency [4]: inconclusive: 23.7 µM [inhibitor, single point] | Potency [15]: active: 14.3 µM and inconclusive: 32.1 µM [inhibitor, single point] | Potency [16]: active: 11.2 µM | Potency [5]: inactive
